Source: the supplement of paper PMC8728848
Some of the results follow.

Legend:
Assay in all cases: glycan array binding signal (z-score within array); higher = stronger binding
Conditions in all cases: glycan notation: IUPAC condensed, linker removed
Neu5Ac(a2-3)GalNAc = target: Neu5Ac(a2-3)GalNAc
Outline: (§1)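 Arrays were curated from the Consortium for Functional Glycomics database, 3228 in total, and kept only where the protein sequence was available. Binding is expressed as a within-array Z-score. This score was averaged across arrays of the same protein sequence at different concentrations or buffers and across linkers, and negative values can be read as non-binding.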

[1] = target: Neu5Ac(a2-3)GalNAc(b1-4)GlcNAc
Outline: as §1

[2] = target: Neu5Ac(a2-3)[GalNAc(b1-4)]Gal(b1-4)Glc
Outline: as §1

[3] = target: Neu5Ac(a2-3)[GalNAc(b1-4)]Gal(b1-4)GlcNAc
Outline: as §1

[4] = target: Neu5Ac(a2-3)[GalNAc(b1-4)]Gal(b1-4)GlcNAc(b1-3)GalNAc
Outline: as §1

[5] = target: Neu5Ac(a2-3)[Neu5Ac(a2-6)]GalNAc
Outline: as §1

Neu5Ac(a2-6)Gal = target: Neu5Ac(a2-6)Gal
Outline: as §1

[6] = target: Neu5Ac(a2-6)Gal(b1-3)GlcNAc(b1-3)[Gal(b1-4)GlcNAc(b1-6)]Gal(b1-4)Glc
Outline: as §1

Neu5Ac(a2-6)Gal(b1-4)Glc = target: Neu5Ac(a2-6)Gal(b1-4)Glc
Outline: as §1

[7] = target: Neu5Ac(a2-6)Gal(b1-4)GlcNAc
Outline: as §1

[8] = target: Neu5Ac(a2-6)Gal(b1-4)GlcNAc(b1-2)Man(a1-3)Man(b1-4)GlcNAc(b1-4)GlcNAc
Outline: as §1

[9] = target: Neu5Ac(a2-6)Gal(b1-4)GlcNAc(b1-2)Man(a1-3)[Gal(b1-4)GlcNAc(b1-2)Man(a1-6)]Man(b1-4)GlcNAc(b1-4)GlcNAc
Outline: as §1

[10] = target: Neu5Ac(a2-6)Gal(b1-4)GlcNAc(b1-2)Man(a1-3)[GlcNAc(b1-2)Man(a1-6)]Man(b1-4)GlcNAc(b1-4)GlcNAc
Outline: as §1

[11] = target: Neu5Ac(a2-6)Gal(b1-4)GlcNAc(b1-2)Man(a1-3)[GlcNAc(b1-2)Man(b1-4)GlcNAc(b1-2)Man(a1-6)]Man(b1-4)GlcNAc(b1-4)GlcNAc
Outline: as §1

[12] = target: Neu5Ac(a2-6)Gal(b1-4)GlcNAc(b1-2)Man(a1-3)[Man(a1-6)]Man(b1-4)GlcNAc(b1-4)GlcNAc
Outline: as §1

[13] = target: Neu5Ac(a2-6)Gal(b1-4)GlcNAc(b1-2)Man(a1-3)[Neu5Ac(a2-6)Gal(b1-4)GlcNAc(b1-2)Man(a1-6)]Man(b1-4)GlcNAc(b1-4)GlcNAc
Outline: as §1

[14] = target: Neu5Ac(a2-6)Gal(b1-4)GlcNAc(b1-2)Man(a1-6)Man(b1-4)GlcNAc(b1-4)GlcNAc
Outline: as §1

[15] = target: Neu5Ac(a2-6)Gal(b1-4)GlcNAc(b1-2)Man(a1-6)[Gal(b1-4)GlcNAc(b1-2)Man(a1-3)]Man(b1-4)GlcNAc(b1-4)GlcNAc
Outline: as §1

[16] = target: Neu5Ac(a2-6)Gal(b1-4)GlcNAc(b1-2)Man(a1-6)[GlcNAc(b1-2)Man(a1-3)]Man(b1-4)GlcNAc(b1-4)GlcNAc
Outline: as §1

[17] = target: Neu5Ac(a2-6)Gal(b1-4)GlcNAc(b1-2)Man(a1-6)[Man(a1-3)]Man(b1-4)GlcNAc(b1-4)GlcNAc
Outline: as §1

[18] = target: Neu5Ac(a2-6)Gal(b1-4)GlcNAc(b1-3)Gal(b1-3)GlcNAc
Outline: as §1

[19] = target: Neu5Ac(a2-6)Gal(b1-4)GlcNAc(b1-3)Gal(b1-4)GlcNAc
Outline: as §1

[20] = target: Neu5Ac(a2-6)Gal(b1-4)GlcNAc(b1-3)Gal(b1-4)GlcNAc(b1-3)Gal(b1-4)GlcNAc
Outline: as §1

[21] = target: Neu5Ac(a2-6)Gal(b1-4)GlcNAc(b1-3)Gal(b1-4)[Fuc(a1-3)]GlcNAc(b1-3)Gal(b1-4)[Fuc(a1-3)]GlcNAc
Outline: as §1

[22] = target: Neu5Ac(a2-6)Gal(b1-4)GlcNAc(b1-3)GalNAc
Outline: as §1

[23] = target: Neu5Ac(a2-6)Gal(b1-4)GlcNAc6S
Outline: as §1

Neu5Ac(a2-6)GalNAc = target: Neu5Ac(a2-6)GalNAc
Outline: as §1

[24] = target: Neu5Ac(a2-6)GalNAc(b1-4)GlcNAc
Outline: as §1

[25] = target: Neu5Ac(a2-6)GlcNAc(b1-4)GlcNAc
Outline: as §1

[26] = target: Neu5Ac(a2-6)GlcNAc(b1-4)GlcNAc(b1-4)GlcNAc
Outline: as §1

Neu5Ac(a2-8)Neu5Ac = target: Neu5Ac(a2-8)Neu5Ac
Outline: as §1

[27] = target: Neu5Ac(a2-8)Neu5Ac(a2-3)Gal(b1-3)GalNAc(b1-4)[Neu5Ac(a2-8)Neu5Ac(a2-3)]Gal(b1-4)Glc
Outline: as §1

[28] = target: Neu5Ac(a2-8)Neu5Ac(a2-3)Gal(b1-4)Glc
Outline: as §1

[29] = target: Neu5Ac(a2-8)Neu5Ac(a2-3)[Gal(b1-3)GalNAc(b1-4)]Gal(b1-4)Glc
Outline: as §1

[30] = target: Neu5Ac(a2-8)Neu5Ac(a2-3)[GalNAc(b1-4)]Gal(b1-4)Glc
Outline: as §1

[31] = target: Neu5Ac(a2-8)Neu5Ac(a2-8)Neu5Ac
Outline: as §1

[32] = target: Neu5Ac(a2-8)Neu5Ac(a2-8)Neu5Ac(a2-3)Gal(b1-4)Glc
Outline: as §1

[33] = target: Neu5Ac(a2-8)Neu5Ac(a2-8)Neu5Ac(a2-3)[GalNAc(b1-4)]Gal(b1-4)Glc
Outline: as §1

[34] = target: Neu5Ac(a2-8)Neu5Ac(a2-8)Neu5Ac(a2-8)Neu5Ac(a2-3)[GalNAc(b1-4)]Gal(b1-4)Glc
Outline: as §1

[35] = target: Neu5Ac(b2-6)Gal(b1-4)GlcNAc
Outline: as §1

Neu5Ac(b2-6)GalNAc = target: Neu5Ac(b2-6)GalNAc
Outline: as §1

[36] = target: Neu5Ac9Ac(a2-3)Gal(b1-3)GlcNAc
Outline: as §1

[37] = target: Neu5Ac9Ac(a2-3)Gal(b1-4)GlcNAc
Outline: as §1

[38] = target: Neu5Ac9Ac(a2-6)Gal(b1-4)GlcNAc
Outline: as §1

[39] = target: Neu5Gc(a2-3)Gal(b1-3)GlcNAc
Outline: as §1

[40] = target: Neu5Gc(a2-3)Gal(b1-3)[Fuc(a1-4)]GlcNAc
Outline: as §1

Neu5Gc(a2-3)Gal(b1-4)Glc = target: Neu5Gc(a2-3)Gal(b1-4)Glc
Outline: as §1

[41] = target: Neu5Gc(a2-3)Gal(b1-4)GlcNAc
Outline: as §1

[42] = target: Neu5Gc(a2-3)Gal(b1-4)[Fuc(a1-3)]GlcNAc
Outline: as §1

[43] = target: Neu5Gc(a2-6)Gal(b1-4)GlcNAc
Outline: as §1

Neu5Gc(a2-6)GalNAc = target: Neu5Gc(a2-6)GalNAc
Outline: as §1

[44] = target: Neu5Gc(b2-6)Gal(b1-4)GlcNAc
Outline: as §1

B1: UEA-I (Ulex europaeus), P22972 (protein)
chain: SDDLSFKFKNFSQNGKDLSFQGDASVIETGVLQLNKVGNNLPDETGGIARYIAPIHIWNCNTGEVASFITSFSFFMETSANPKAATDGLTFFLAPPDSPLRRAGGYFGLFEDTKDNDSSYQTVAVEFDTIGSPVNFDDPGFPHIGIDVNRVKSINAERWNKRYGLNNVANVEIIYEASSKTLTASLTYPSDQTSISVTSIVDLKEILPEWVSVGFSGGTYIGRQATHEVLNWYFTSNLIN
glycan array binding signal (z-score) (Neu5Ac(a2-3)GalNAc): -0.177
glycan array binding signal (z-score) [1]: -0.181
glycan array binding signal (z-score) [2]: -0.187
glycan array binding signal (z-score) [3]: -0.179
glycan array binding signal (z-score) [4]: -0.114
glycan array binding signal (z-score) [5]: -0.182
glycan array binding signal (z-score) (Neu5Ac(a2-6)Gal): -0.181
glycan array binding signal (z-score) [6]: -0.177
glycan array binding signal (z-score) (Neu5Ac(a2-6)Gal(b1-4)Glc): -0.182
glycan array binding signal (z-score) [7]: -0.178
glycan array binding signal (z-score) [8]: -0.179
glycan array binding signal (z-score) [9]: -0.183
glycan array binding signal (z-score) [10]: -0.179
glycan array binding signal (z-score) [11]: -0.179
glycan array binding signal (z-score) [12]: -0.184
glycan array binding signal (z-score) [13]: -0.17
glycan array binding signal (z-score) [14]: -0.184
glycan array binding signal (z-score) [15]: -0.176
glycan array binding signal (z-score) [16]: -0.175
glycan array binding signal (z-score) [17]: -0.176
glycan array binding signal (z-score) [18]: -0.185
glycan array binding signal (z-score) [19]: -0.179
glycan array binding signal (z-score) [20]: -0.176
glycan array binding signal (z-score) [21]: -0.179
glycan array binding signal (z-score) [22]: -0.182
glycan array binding signal (z-score) [23]: -0.168
glycan array binding signal (z-score) (Neu5Ac(a2-6)GalNAc): -0.185
glycan array binding signal (z-score) [24]: -0.156
glycan array binding signal (z-score) [25]: 0.034
glycan array binding signal (z-score) [26]: -0.098
glycan array binding signal (z-score) (Neu5Ac(a2-8)Neu5Ac): -0.181
glycan array binding signal (z-score) [27]: -0.152
glycan array binding signal (z-score) [28]: -0.182
glycan array binding signal (z-score) [29]: -0.184
glycan array binding signal (z-score) [30]: -0.173
glycan array binding signal (z-score) [31]: -0.183
glycan array binding signal (z-score) [32]: -0.186
glycan array binding signal (z-score) [33]: -0.167
glycan array binding signal (z-score) [34]: -0.169
glycan array binding signal (z-score) [35]: -0.183
glycan array binding signal (z-score) (Neu5Ac(b2-6)GalNAc): -0.179
glycan array binding signal (z-score) [36]: -0.182
glycan array binding signal (z-score) [37]: -0.181
glycan array binding signal (z-score) [38]: -0.181
glycan array binding signal (z-score) [39]: -0.182
glycan array binding signal (z-score) [40]: -0.186
glycan array binding signal (z-score) (Neu5Gc(a2-3)Gal(b1-4)Glc): -0.187
glycan array binding signal (z-score) [41]: -0.18
glycan array binding signal (z-score) [42]: -0.182
glycan array binding signal (z-score) [43]: -0.18
glycan array binding signal (z-score) (Neu5Gc(a2-6)GalNAc): -0.178
glycan array binding signal (z-score) [44]: -0.186
